Measured values as given in the supplement of paper PMC4166925.
± gives the standard deviation of the averaged measurements. Whole data set: some 33,000 sequences, median “E-score (dimensionless, -0.5 to 0.5)” near -0.046, cut for the highest 2% near 0.36. This is one part of the list.

Each sequence was assayed on T1, SpTbr T-box DNA-binding domain (GST fusion) (assay: PBM E-score of 8-mer (E-score (dimensionless, -0.5 to 0.5)); Tbr is Tbrain of the sea star Patiria miniata (Pm) or the sea urchin Strongylocentrotus purpuratus (Sp); higher = stronger binding preference; most listed sequences are background and not binding sites). Conditions: the construct has about 5 more residues each side.
T1 sequence: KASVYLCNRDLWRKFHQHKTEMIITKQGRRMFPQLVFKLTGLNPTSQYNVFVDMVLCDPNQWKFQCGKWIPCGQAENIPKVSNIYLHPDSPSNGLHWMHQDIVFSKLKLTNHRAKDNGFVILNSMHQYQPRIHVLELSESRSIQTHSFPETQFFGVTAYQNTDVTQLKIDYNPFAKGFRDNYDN
Procedure, shortened: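 Expression of GST-fused Tbr T-box DNA-binding domains, each holding the full T-box plus roughly five flanking residues, was carried out in BL21 E. coli at 20 °C, with purification by glutathione affinity chromatography. Universal Agilent arrays made double-stranded by primer extension were incubated with the protein at 200 nM in PBS (pH 7.5), then scanned and quantified. All ungapped 8-mers were scored from probe intensities, and each received an enrichment E-score from the Universal PBM Analysis Suite, averaged over duplicate arrays.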

Row | Sequence | PBM E-score of 8-mer
1 | ACCTACGA | -0.0518 ± 0.035
2 | CCAGTCGC | 0.0261 ± 0.0086
3 | AGTGCCGC | 0.104 ± 0.016
4 | CAGGCCTA | -0.166 ± 0.014
5 | CCTCAGAA | -0.076 ± 0.04
6 | CACTGATA | 0.0724 ± 0.051
7 | GATGGGAA | -0.0808 ± 0.012
8 | CGCCCCGA | 0.0439 ± 0.0082
9 | AGGTTAAG | -0.139 ± 0.054
10 | CCCCAACA | 0.232 ± 0.047
11 | CCTGAAGG | -0.195 ± 0.053
12 | GCACAAAC | -0.0808 ± 0.0095
13 | CGGTAACG | 0.19 ± 0.045
14 | GGCGAGCC | -0.0845 ± 0.068
15 | CGGCCTAA | -0.0637 ± 0.029
16 | CTAGCGAA | 0.115 ± 0.023
17 | AGATGAAA | -0.212 ± 0.0059
18 | CATCGATC | -0.152 ± 0.13
19 | CAGACGCA | -0.238 ± 0.033
20 | TCAAACCA | -0.203 ± 0.059
21 | CACTCTAC | 0.0875 ± 0.014
22 | ACCAGCAG | -0.175 ± 0.0041
23 | CGGTGGTC | -0.17 ± 0.031
24 | AGCCAGGA | -0.0911 ± 0.039
25 | ACATTCAT | -0.0127 ± 0.0095

Row | Sequence | PBM E-score of 8-mer
26 | ATCGGGCA | -0.0298 ± 0.0004
27 | GGCTCACC | 0.00165 ± 0.028
28 | TGCAACAA | -0.00651 ± 0.095
29 | GTATTAGA | -0.214 ± 0.02
30 | GCGGAGCC | -0.1458 ± 0.00053
31 | ATAAGATG | -0.148 ± 0.069
32 | ATACCACC | 0.104 ± 0.026
33 | CATGCTAG | -0.0781 ± 0.11
34 | CATATGTC | -0.0101 ± 0.15
35 | CTCTATCC | -0.183 ± 0.02
36 | CTTGCTCC | -0.016 ± 0.0096
37 | GTCGACTA | 0.0757 ± 0.0078
38 | GGTTCTAC | -0.0878 ± 0.052
39 | AATTCAAG | -0.189 ± 0.065
40 | ACTTGGGA | 0.0129 ± 0.055
41 | GCTCAAAA | 0.0125 ± 0.064
42 | CTCATGCA | -0.0424 ± 0.071
43 | TTATTAAA | -0.0454 ± 0.075
44 | GGCATGCC | -0.091 ± 0.049
45 | ATTTTCTC | 0.0719 ± 0.0033
46 | AGTAGCCA | -0.116 ± 0.052
47 | AGATTCGA | -0.0181 ± 0.0043
48 | AAAGACCT | -0.0818 ± 0.046
49 | GATTGATA | 0.0155 ± 0.045
50 | CATGCTGC | -0.151 ± 0.096

Row | Sequence | PBM E-score of 8-mer
51 | CTGATAGA | -0.171 ± 0.029
52 | CCCTTATA | -0.265 ± 0.0083
53 | AAGGAAAG | -0.0606 ± 0.032
54 | CTCAAGTC | -0.0664 ± 0.079
55 | AACGGGGC | -0.0487 ± 0.031
56 | CTTGTGAA | 0.353 ± 0.034
57 | AACGTCAA | -0.0258 ± 0.023
58 | AATATGGT | -0.0209 ± 0.014
59 | ATAGGACC | -0.165 ± 0.017
60 | AAACGCCA | 0.121 ± 0.0059
61 | CGTAGTCC | -0.219 ± 0.016
62 | AAGGTGCA | 0.35 ± 0.01
63 | CAAAGAGG | 0.00417 ± 0.065
64 | GATTCATA | -0.14 ± 0.096
65 | AATCGACT | -0.182 ± 0.0061
66 | CTAGGAGC | 0.0293 ± 0.071
67 | CAATAGCC | -0.0482 ± 0.028
68 | CCTCGCTC | 0.00354 ± 0.062
69 | TGGTTCAA | -0.119 ± 0.011
70 | ACGTGACT | 0.0957 ± 0.028
71 | CCTAGCAA | 0.0777 ± 0.054
72 | GACACGAC | 0.152 ± 0.033
73 | CGACCGCA | 0.133 ± 0.018
74 | AATGACTA | -0.0274 ± 0.0033
75 | AAGATGAT | 0.114 ± 0.036

Row | Sequence | PBM E-score of 8-mer
76 | ATGTGGGG | 0.105 ± 0.066
77 | AGCTGTAG | -0.198 ± 0.05
78 | GCCCCCAA | -0.0939 ± 0.07
79 | ACATTGGT | 0.143 ± 0.015
80 | GGTAGAAC | -0.0679 ± 0.082
81 | ACTATAAG | -0.0205 ± 0.1
82 | GAGGTGGC | 0.3855 ± 0.0037
83 | TGGATTAA | -0.175 ± 0.012
84 | CTCCCGTA | -0.2068 ± 0.0016
85 | AGCCGAAA | -0.174 ± 0.01
86 | CGCTGACA | 0.315 ± 0.045
87 | GGCTTGCA | -0.202 ± 0.012
88 | GTGCTAAC | 0.432 ± 0.012
89 | AATTTACC | -0.186 ± 0.004
90 | ATCATATA | -0.0878 ± 0.0091
91 | CCACAATC | 0.0731 ± 0.027
92 | CTCCTATA | -0.123 ± 0.044
93 | CGTGCCTC | 0.0566 ± 0.12
94 | TAAGGACA | -0.102 ± 0.18
95 | GCACTTAC | 0.208 ± 0.017
96 | GAACTGAA | -0.203 ± 0.0021
97 | AGTCCGGC | -0.202 ± 0.017
98 | ACATAGAG | 0.0104 ± 0.046
99 | CAGGAAGA | -0.141 ± 0.032
100 | ACGTCTGA | -0.0348 ± 0.011

Row | Sequence | PBM E-score of 8-mer
101 | ACAATGCT | -0.0281 ± 0.021
102 | CTGACACC | 0.4611 ± 0.0014
103 | ACGGACCA | -0.345 ± 0.0098
104 | CAGGGTAG | -0.0171 ± 0.014
105 | AGTCTACG | -0.209 ± 0.008
106 | AGCAACAC | 0.376 ± 0.026
107 | GGTCCACC | -0.057 ± 0.027
108 | AGCTATCA | -0.08557 ± 0.00069
109 | GTCCAGAC | -0.0987 ± 0.0032
110 | GAAAGAAA | -0.109 ± 0.056
111 | GCTACTGA | 0.0912 ± 0.025
112 | CAGTGACC | 0.0993 ± 0.0032
113 | CCTGCAAA | 0.0204 ± 0.04
114 | AACGGTAA | -0.221 ± 0.085
115 | ACTCCCGA | -0.112 ± 0.069
116 | GTAGGGTA | 0.0507 ± 0.035
117 | GTAAGCAC | 0.068 ± 0.023
118 | TACAAGAA | -0.162 ± 0.068
119 | CTAGTCAC | 0.157 ± 0.038
120 | CCGGGCTA | -0.195 ± 0.029
121 | CACAGGTG | 0.453 ± 0.005
122 | CTGCCCAA | -0.0499 ± 0.13
123 | GTTGACAA | 0.389 ± 0.016
124 | ATACGTGC | 0.0518 ± 0.01
125 | AACTACCC | -0.101 ± 0.02

Row | Sequence | PBM E-score of 8-mer
126 | AAGGTAGA | -0.205 ± 0.051
127 | AGATTTAA | -0.0993 ± 0.024
128 | ACACGCGC | 0.227 ± 0.05
129 | CTAAGGCA | -0.0263 ± 0.033
130 | AATCGTAG | -0.147 ± 0.02
131 | CGTCCCAC | -0.0142 ± 0.037
132 | GAGTTGCA | 0.0465 ± 0.0034
133 | CTCGAATA | -0.0405 ± 0.095
134 | CCGCACAA | 0.121 ± 0.067
135 | ATGCACCG | -0.0673 ± 0.0013
136 | AAAGAATT | -0.183 ± 0.04
137 | AAGTGGTC | -0.0526 ± 0.0075
138 | CTGCCATC | -0.0451 ± 0.048
139 | GAGGTACC | 0.00431 ± 0.0012
140 | ACCCGCTA | 0.17 ± 0.021
141 | AGAAGTAA | -0.112 ± 0.028
142 | ATTCTGTA | -0.132 ± 0.057
143 | CGACACCC | 0.416 ± 0.028
144 | CGCATCTA | 0.0404 ± 0.06
145 | CATGTCCC | -0.163 ± 0.03
146 | AAATTATG | -0.054 ± 0.07
147 | CCGTTAAG | 0.175 ± 0.036
148 | GATCAGCC | -0.106 ± 0.049
149 | TGCAATAA | -0.129 ± 0.011
150 | CGGATTGA | -0.09 ± 0.073

Row | Sequence | PBM E-score of 8-mer
151 | AACGTGAC | 0.248 ± 0.028
152 | CGGTAGAA | -0.192 ± 0.048
153 | ATTGACGG | 0.144 ± 0.0081
154 | AGTTTGGG | -0.0494 ± 0.022
155 | AGCGGATC | 0.0611 ± 0.053
156 | AATCAGTG | 0.0458 ± 0.0095
157 | AATGATGC | -0.0164 ± 0.065
158 | AGCAAAAC | 0.0131 ± 0.017
159 | CTATAAGA | -0.00374 ± 0.091
160 | GCCCTTAC | -0.00743 ± 0.12
161 | ACCACCAG | -0.188 ± 0.074
162 | CAGGGGCC | -0.0729 ± 0.012
163 | ACTCGAGA | -0.0321 ± 0.017
164 | GCGGGCAC | 0.11 ± 0.031
165 | CTCCTCAG | -0.0357 ± 0.025
166 | GTCATCGA | 0.2022 ± 0.00077
167 | TCCGTCGA | -0.121 ± 0.008
168 | TCGAAACA | -0.0701 ± 0.042
169 | CTTCCAGC | -0.111 ± 0.1
170 | TCCTGCGA | 0.0345 ± 0.024
171 | ATGCTTTA | -0.108 ± 0.0093
172 | GGCGCGCA | 0.153 ± 0.047
